Reference: PMC6919601, “Identification of Plasmodium dipeptidyl aminopeptidase allosteric inhibitors by high throughput screening” (PLoS ONE, 2019)
Among all 110,000 compounds or so, about 230 (0.21%) showed an effect of 50% or more. This is one part of the list.

The compounds below were run against DPAP1 (Plasmodium falciparum, UniProt Q8IIJ9) (assay: primary screen, percent inhibition; read by cleavage of a fluorogenic dipeptide substrate; higher = more effect of the substance).
Parameters: species or system P. falciparum D10 trophozoite lysates; single well
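Also: 30 min substrate incubation versus DMSO and 10 µM JCP410 controls.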

Sequence of DPAP1 (Q8IIJ9 whole entry, looked up): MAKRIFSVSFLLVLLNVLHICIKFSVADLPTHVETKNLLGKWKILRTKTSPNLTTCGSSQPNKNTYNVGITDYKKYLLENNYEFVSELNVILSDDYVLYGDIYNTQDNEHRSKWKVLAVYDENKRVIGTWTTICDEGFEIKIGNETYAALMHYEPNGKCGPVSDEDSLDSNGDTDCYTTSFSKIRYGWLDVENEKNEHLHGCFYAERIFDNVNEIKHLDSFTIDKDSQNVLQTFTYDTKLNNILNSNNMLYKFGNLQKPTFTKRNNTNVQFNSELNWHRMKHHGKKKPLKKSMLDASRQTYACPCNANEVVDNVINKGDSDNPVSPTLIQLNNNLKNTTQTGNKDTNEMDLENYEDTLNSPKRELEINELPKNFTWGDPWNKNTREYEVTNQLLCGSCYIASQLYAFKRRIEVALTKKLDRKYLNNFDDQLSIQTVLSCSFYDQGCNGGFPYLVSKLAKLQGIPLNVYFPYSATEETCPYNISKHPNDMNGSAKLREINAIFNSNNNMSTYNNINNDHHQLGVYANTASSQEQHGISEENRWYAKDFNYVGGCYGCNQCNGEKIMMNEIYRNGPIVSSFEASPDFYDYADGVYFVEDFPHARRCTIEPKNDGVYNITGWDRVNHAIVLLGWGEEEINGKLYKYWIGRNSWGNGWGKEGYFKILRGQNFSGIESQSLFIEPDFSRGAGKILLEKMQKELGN

| Compound | % Inhibition @ 10 uM [%] |
| --- | --- |
| CC(=O)Nc1cccc(NC(=O)c2cccc(Cn3cc(Cl)cn3)c2)c1 | -2.76 |
| COc1ccccc1C1=N/C(=C\c2cccc(Cl)c2Cl)C(=O)O1 | 3.58 |
| O=C1c2ccncc2C(=O)N1c1cccc(F)c1 | 5.15 |
| N#CCNC(=O)C(CC1CCCCC1)C(=O)N1CCc2ccccc2C1 (stereo not shown) | -5.21 |
| Cc1ccccc1Cn1c(C(=O)O)c(CNCCC2=CCCCC2)c2ccccc21 | -5.05 |
| COc1cccc(N(CC(=O)Nc2ccc3ccccc3c2)S(=O)(=O)c2ccccc2)c1 | 0.746 |
| Cc1ccc(C2CC(=O)NC(SCc3ccccc3)=C2C#N)o1 (stereo not shown) | -4.03 |
| CCOc1cc(C2NC(=O)c3ccccc3N2)ccc1O (stereo not shown) | 4.3 |
| O=C(CN(C1CCCCC1)S(=O)(=O)c1ccc(Br)cc1)N1CCc2ccccc2C1 | -3.41 |
| CCC1(CC)Cc2ccccc2-c2nc3n(c(=O)c21)CCS3 | 2.94 |
| NC(=O)CCN1C(=O)c2ccccc2C1=O | -3.85 |
| O=C1CCCC2=C1C(c1ccc3c(c1)OCO3)C1C(=O)c3ccccc3C1=N2 (stereo not shown) | 7.86 |
| COc1ccc(CNc2nc(-c3cccnc3)nn2C(=O)c2ccc(C)cc2)cc1 | -2.92 |
| OCC(O)CN1CCc2ccccc21 (stereo not shown) | -6.99 |
| COc1cc(/C=C2\SC(=O)N(CC(=O)Nc3ccc(F)cc3)C2=O)ccc1OC(C)C | 3.9 |
| CC1=CC2=NC(=O)/C(=C\c3cc(C)n(-c4cc(Cl)ccc4C)c3C)C(=N)N2O1 | -5.1 |
| CN(Cc1ccccc1)Cc1c(O)ccc2ccccc12 | 2.91 |
| Cc1nn(-c2ccccc2)c(-n2cccc2)c1C(=O)NCCC1=CCCCC1 | 4.95 |
| O=C(NCCCN1CCCC1=O)c1ccc2c(Cl)c3c(nc2c1)CCCC3 | 3.06 |
| COc1cccc(/C=C2/NC(=O)N(Cc3ccc(Cl)cc3)C2=O)c1O | 2.01 |
| Cc1cc(-c2ccc(S(=O)(=O)N3CCc4ccccc4C3)s2)on1 | -4.93 |
| CC(C)CCN1CSC2=C(C#N)C(c3ccc(Cl)cc3)CC(=O)N2C1 (stereo not shown) | 54.6 |
| COC(=O)c1c(C)ncc2c1COC(C)OC2 (stereo not shown) | -5.4 |
| Cc1ccc(CNC(=O)C2CCCN(C(=O)c3cnn(-c4ccccc4)c3-n3cccc3)C2)cc1 (stereo not shown) | 1.38 |
| CCOc1ccc(C2C(C(=O)c3ccc(C)cc3)=C(O)C(=O)N2c2cccnc2)cc1 (stereo not shown) | 6.82 |

| Compound | % Inhibition @ 10 uM [%] |
| --- | --- |
| CN1CCN(C(=O)c2ccc(N3CCN(CCO)CC3)nc2)CC1 | 3.58 |
| CC(C)CC1C(C#N)=C(N)OC2=C1C(=O)CC(c1ccccc1)C2 (stereo not shown) | 3.65 |
| COc1cccc(C2Nc3ccccc3N=C3CC(c4cccs4)CC(O)=C32)c1O (stereo not shown) | -2.77 |
| CCOc1ccc(Br)cc1/C=C(\C#N)c1nc2ccccc2[nH]1 | -2.36 |
| O=C(NCc1cccs1)[C@H](Cc1ccccc1)N1Cc2ccccc2C1=O | 2.93 |
| COc1ccc(CCNC(=O)c2cc(C)nc3c2c(C)nn3-c2ccc(C)cc2)c(OC)c1OC | -9.03 |
| COc1ccc(NC(=O)c2cnn3c(C(F)F)cc(-c4ccccc4)nc23)c(C)c1 | 2.42 |
| CCCCCCn1c(CCNC(=O)C(C)C)nc2ccccc21 | -1.74 |
| Cc1[nH]c(-c2ccc(F)cc2)cc1C(=O)NCCCc1ccccc1 | -1.56 |
| Cc1ccc2oc(C(=O)Nc3sc4c(c3C(=O)NCc3ccco3)CCCC4)cc(=O)c2c1 | -1.68 |
| CC1=NN(C(=O)c2ccc(COc3ccccc3Cl)o2)C(O)(C(F)(F)F)C1 (stereo not shown) | 4.03 |
| CCN1CCN(C(=O)CCNC(=O)c2cc(OC)c(OC)c(OC)c2)CC1 | -2.48 |
| O=C(Nc1ccc2c(c1)C(=O)c1ccccc1C2=O)c1ccccc1 | -6.18 |
| COc1ccc(C2CC(c3c(O)cc(C)oc3=O)=NCCS2)cc1OC (stereo not shown) | -4.01 |
| CC1=CC(C)(C)N(S(=O)(=O)c2ccc(Cl)cc2)c2ccccc21 | -2.09 |
| CCN1CCC(NC(C)c2ccc(F)cc2)CC1 (stereo not shown) | 3.15 |
| Cc1ccc(NC(=O)c2ccc(F)cc2)c(NC(=O)c2ccc(F)cc2)c1 | -6.05 |
| Cc1ccc2cc3cc(C(=O)NCc4ccc(F)cc4Cl)oc3nc2c1 | 1.9 |
| CCOC(=O)c1sc(NC(=O)c2cncc(Br)c2)c(C(=O)OCC)c1C | 0.343 |
| CC(C)Oc1ccccc1C1CC(=O)Nc2c1c(=O)n(C)c(=O)n2C (stereo not shown) | -3.51 |
| CC(=O)Nc1ccc2[nH]c(-c3ccc(Cl)cc3Cl)nc2c1 | 1.96 |
| COc1cc(C2CC(=O)NC3=C2C(=O)CC(C)(C)C3)ccc1OCc1ccccc1 (stereo not shown) | 0.559 |
| NC(=O)C1CCN(Cc2ccc(F)cc2F)CC1 | 0.0792 |
| COc1cc(C(=O)Nc2nc(C)c(C)s2)cc(OC)c1OC | 2.3 |
| CCOC(=O)c1c(CSc2ccccc2)oc2ccc(O)c(CN(C)C)c12 | -2.75 |

| Compound | % Inhibition @ 10 uM [%] |
| --- | --- |
| CCSc1nc(O)c(CC)c(=O)n1C1CCCCC1 | 5.35 |
| NC(=O)c1c(NC(=O)c2sc3ccccc3c2Cl)sc2c1CCCCC2 | 17.3 |
| CN1C(=O)c2[nH]nc(-c3ccc(F)cc3)c2C1c1cccnc1 (stereo not shown) | 2.29 |
| Cc1ccc2c(CNCCc3ccccc3C)c(C(=O)O)n(Cc3ccccc3F)c2c1 | -5.04 |
| COc1ccc(C(=O)N/C(=C\c2ccccc2)C(=O)N2CCOCC2)cc1 | 2.36 |
| Cc1cc(C)nc(-n2cnc3ccccc32)n1 | -2.91 |
| C=CCOc1ccccc1CN1CCN(c2ccccc2C)CC1 | -1.64 |
| Cc1nn(C)cc1CN(C)C(=O)c1cc2n(n1)C(C(F)(F)F)CC(c1ccco1)N2 (stereo not shown) | 3.17 |
| CCc1c(C)sc(NC(=O)C2CCCC2)c1C(N)=O | 3.49 |
| CCc1ccc(-c2csc(Nc3ccc(C)cn3)n2)cc1 | 3.59 |
| CCCN1CCN(C(=O)c2ccc3nc(CC)c(CC)nc3c2)CC1 | 1.76 |
| CCOC(=O)C1=C(CN2CCN(C(=O)OCC)CC2)NC(=O)NC1c1ccc(OC(C)C)cc1 (stereo not shown) | 0.494 |
| Cn1c(=O)c2c(nc(Oc3cccc(O)c3)n2C)n(C)c1=O | -3.75 |
| CCC1CCCCN1Cc1nc2c(c(=O)n(C)c(=O)n2C)n1CCCc1ccccc1 (stereo not shown) | 2 |
| CCn1nccc1C(=O)Nc1ccc(S(=O)(=O)NC23CC4CC(CC(C4)C2)C3)cc1 | -1.82 |
| Cc1ccc2c(Cl)c(C(=O)Nc3nccs3)sc2c1 | -3.26 |
| CCCS(=O)(=O)c1nc(S(=O)(=O)c2ccc(C)cc2)c(NCCCN(CC)CC)s1 | 1.15 |
| Cc1cc(C)c(OC(=O)NC(C(F)(F)F)C(F)(F)F)c(C)c1 | -0.712 |
| N#CC1=C(N)OC2=C(C(=O)CCC2)C1c1ccc2c(c1)OCO2 (stereo not shown) | 1.66 |
| N#CCNC(=O)C(CCc1cc(Cl)ccc1Cl)NC(=O)OCc1ccccc1 (stereo not shown) | -3.48 |
| CNc1nc2nc(O)c3c(c2s1)OC(N)=C(C#N)C3c1cccc(F)c1 (stereo not shown) | -2.77 |
| Cc1cccc(NC(=O)Cn2ncc3c(=O)oc4ccccc4c32)n1 | -1.03 |
| Cc1ccc(Cc2cc(C)ncc2C)c(C)c1 | 6.29 |
| Oc1ccc(SCCCCN2CCCCC2)cc1 | -6.32 |
| O=C(c1ccco1)N1CCn2cccc2C1c1ccccc1 (stereo not shown) | 4.61 |

| Compound | % Inhibition @ 10 uM [%] |
| --- | --- |
| CCOCCCNC(=O)CS(=O)Cc1nc(-c2ccc(OC)c(OC)c2)oc1C (stereo not shown) | -2.85 |
| O=C(Cn1cc(SCc2cccc(Cl)c2)c2ccccc21)N1CCCC1 | 0.292 |
| Cc1ccc(CCNC(=O)CS(=O)Cc2nc(-c3cccs3)oc2C)cc1 (stereo not shown) | 1.55 |
| CCc1cc2c(cc(C(=O)OC)n2Cc2cc(=O)n3ccccc3n2)s1 | -5.03 |
| O=C1OC(c2ccccc2F)=N/C1=C\c1ccc2ccccc2c1 | 1.25 |
| COc1ccc(C)cc1NS(=O)(=O)c1ccc(OC)c(Cl)c1Cl | 0.727 |
| CCOC(=O)c1ccc2ncc(C(=O)OCC)c(NCCCOC(=O)c3cccs3)c2c1 | 1.52 |
| CC(=O)c1cccc(NC(=O)CN(Cc2ccc(Cl)cc2)S(=O)(=O)c2ccc(C)cc2)c1 | 0.795 |
| CC(/C=N/n1cnnc1)=C\c1ccccc1 | 6.23 |
| Cc1c(Cl)cccc1NS(=O)(=O)c1c(C(C)C)cc(C(C)C)cc1C(C)C | 5.08 |
| C=CCn1c(SCC(=O)O)nnc1-c1ccc(Cl)cc1Cl | 10.4 |
| CCOc1ccc(CCNC(=O)CCc2c(C)nc3nc(C)nn3c2C)cc1OCC | 2.93 |
| CN(C)CCN(C)C/C=C/c1ccccc1 | -6.62 |
| O=C(Nc1cc(Cl)cc(Cl)c1)Nc1cccc2ccccc12 | -2.18 |
| CCOC(=O)/C(C#N)=C/c1ccc(SC)cc1 | 11.6 |
| COc1ccc(CNC(=O)c2ccc(C3SCC(=O)N3CCc3ccccc3)cc2)cc1 (stereo not shown) | -1.65 |
| COC(=O)C(Cc1ccccc1)NC(=O)c1ccc(Br)cc1 (stereo not shown) | 4.63 |
| COc1cc(C(=O)N2CCc3ccccc32)cc(OC)c1OC | -1.76 |
| O=C(OCCn1cncn1)c1cc2ccccc2oc1=O | -3.58 |
| CC(C)(C)Oc1ncc(-c2ccccc2)c(OC(C)(C)C)n1 | -3.78 |
| CCN(CC)CCCOc1cccc(Cl)c1 | 0.0792 |
| Cc1ccc(C)n1-c1nnc(N2CCC(C(=O)N3CCOCC3)CC2)s1 | 2.76 |
| Cc1ccc(NC(=O)C(C)Sc2nc(N)cc(N)n2)cc1 (stereo not shown) | -2.11 |
| O=C(COc1ccc(C2CCCCC2)cc1)Nc1ccc(CN2CCOCC2)cc1 | -2.29 |
| CCC(C)(C)c1ccc(OCC(=O)Nc2ccccc2C(=O)O)cc1 | 1.79 |
